# Data reported in EP3138561A1 (priority 2014, dated 2015).
# Legend:
# [1] = test system: Burkholderia cepacia; conditions: 0.05%, 0.1%, and 0.2% solutions
# [2] = test system: Pseudomonas aeruginosa; conditions: 0.02 wt%, 0.05 wt%, and 0.1 wt% solutions
compound,measurement,setting,value
"CC1CCC(C(C)C)C(OC(=O)C[N+](C)(C)CCCCCCCCCC[N+](C)(C)CC(=O)OC2CC(C)CCC2C(C)C)C1 (stereo not shown) [decamethoxine, 1,10-decamethylene-bis(N,N-dimethyl-menthoxycarbonylmethyl)ammonium dichloride]",Mean therapy time,[1],5 days
same,bronchospasm or cough on inhalation,[2],no bronchospasm or cough had been observed
same,creatinine and urea levels,[2],no increase in creatinine and urea levels
same,tolerance of inhalations,[2],well tolerated
